Results from the supplement of paper PMC5499739.
Over roughly 16,000 sequences, “Z-score” has its median near -0.37; the highest 2% begin near 3.1. The list shows a part of the results.

tested on: RBM10 RRM1-ZnF-RRM2 (GST-tagged construct); assay: RNAcompete 7-mer binding Z-score; higher = stronger binding preference
Outline: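 GST-tagged RBM10 constructs (20 pmol) and a designed pool of 241 399 RNAs up to 41 nt (1.5 nmol) were allowed to bind for 30 min at 4°C in 1 ml Hepes pH 7.8 buffer with glutathione Sepharose beads. After four 2-min washes at 4°C, bound RNA was identified by microarray hybridisation. Enrichment was scored per heptamer motif as a one-sided Z-score across the probes containing it.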

Row | Sequence | RNAcompete 7-mer binding Z-score
1 | UACUUAG | -0.526
2 | CGCGAGA | -0.289
3 | AGAUGCA | -0.0925
4 | AUAAUCG | -0.449
5 | AGAUCCU | -0.989
6 | GAUCAUA | -0.198
7 | GCGCAUC | -0.504
8 | CUACGCA | -0.602
9 | CGGUAUC | 0.0131
10 | UUCUUGA | -0.879
11 | GGAGGGG | 4.18
12 | UGGUCUC | -0.402
13 | AUCCGUU | -0.672
14 | CCGUUCG | -0.759
15 | CUACGUC | -0.559
16 | UAUAAAC | -0.322
17 | ACGAUCU | -0.836
18 | CGAUAUU | -0.573
19 | UACUGGG | 1.1
20 | UACUUGG | -0.162
21 | UCUAAGG | -0.078
22 | CGAGGAA | 1.59
23 | CAAUUGG | 1.07

Row | Sequence | RNAcompete 7-mer binding Z-score
24 | GUUGUUG | 0.104
25 | CCCCGAC | -0.435
26 | CUAAGGG | 1.35
27 | GAGUCAA | 0.261
28 | AGGUGCA | 1.57
29 | ACCGUUC | -0.916
30 | UACGGGC | 0.971
31 | UGAGGCG | 1.68
32 | AUAACAU | -0.253
33 | CGUGGGA | 2.39
34 | GAUGGAA | 3.04
35 | UGCGUCC | -0.708
36 | CAGUGUC | -0.479
37 | AUAUGCC | -0.679
38 | UGGAUCU | -0.187
39 | UCUGCAA | -0.81
40 | GGGUAUG | 3.69
41 | AGACAUU | -0.548
42 | AUCCUCU | -0.679
43 | CAGUCAA | -0.34
44 | ACAGUGA | 0.501
45 | UGGUUGA | 1.31
46 | CGCAAAU | -0.504

Row | Sequence | RNAcompete 7-mer binding Z-score
47 | GGUGACU | 1
48 | CGGUGUG | 1.42
49 | UCCUUCG | -0.89
50 | AACUUAC | -0.741
51 | UGUCUCU | -0.799
52 | UAAAAUG | -0.00512
53 | GAAAGAA | 0.873
54 | GCUUUGC | -0.781
55 | ACUAGGU | 0.308
56 | CUUGGAU | -0.439
57 | UAGGGUG | 4.51
58 | CAGGACA | 1.07
59 | AGGCAGC | 0.0313
60 | AUGCCCC | -0.65
61 | GCCAUCG | -0.646
62 | GAGAUUU | -0.315
63 | GUGGAGG | 4.09
64 | AGCAUGA | -0.369
65 | UCUACUC | -0.679
66 | GAAGCCA | -0.118
67 | ACUCCGC | -0.734
68 | AGUAUCU | -0.683
69 | UGAUCUC | -0.69

Row | Sequence | RNAcompete 7-mer binding Z-score
70 | UGAUCUG | -0.486
71 | GCCCAUU | -0.908
72 | UAACUGC | -0.544
73 | GGCUUCG | 0.00216
74 | CCGGCGA | 0.0313
75 | CCUGCAU | -0.795
76 | CGGGGGU | 3.06
77 | AUGUAUU | -0.42
78 | UAUUUCC | -0.912
79 | CUGGAAC | -0.0962
80 | CCGGACG | -0.0525
81 | GAUUCAA | -0.0962
82 | GACCGUC | -0.956
83 | CGCAGGC | -0.151
84 | GUGAAGC | 0.428
85 | UCCCCCU | -0.566
86 | GGAAUAG | 2.37
87 | CGCACGC | -0.573
88 | UCCGUUG | -0.388
89 | GAGGAUC | 0.632
90 | GAAUCUA | -0.391
91 | CGUAAAC | -0.209
92 | CUUAGAA | -0.504

Row | Sequence | RNAcompete 7-mer binding Z-score
93 | GUAGUCU | -0.256
94 | CUUGGGA | 0.945
95 | AAGCGUU | -0.249
96 | CAUUAAG | -0.125
97 | AGACACC | -0.956
98 | UAGCCCU | -0.908
99 | UAGCAUG | 0.0714
100 | CCGAUCC | -0.777
101 | GCGAAGA | 0.519
102 | GCGUCCU | -0.697
103 | GACCAAC | -0.293
104 | AGCUGGU | 0.763
105 | AACGGGU | 3.25
106 | AUGCAAA | -0.0889
107 | AAACAUA | -0.18
108 | ACAAGUU | -0.351
109 | AACAUUG | -0.184
110 | GAUGCCA | -0.581
111 | CCGAUCG | -0.511
112 | ACGAAAC | -0.267
113 | CCCCCGC | -0.464
114 | ACAGCAU | -0.453
115 | AAACCUC | -0.766

Row | Sequence | RNAcompete 7-mer binding Z-score
116 | GAUCAUU | -0.632
117 | GCUUUCG | -0.748
118 | GGUAGCG | 1.64
119 | CUGGUCG | -0.0415
120 | AACAGAA | 0.126
121 | ACACUUU | -0.989
122 | UCGAUGU | -0.5
123 | CUGAGGA | 0.323
124 | UCGCAUU | -0.683
125 | CAUCGCC | -0.876
126 | CUAGCGC | -0.741
127 | ACUGUCC | -0.843
128 | GAUGAUA | 0.494
129 | GCGCGCU | -0.333
130 | ACGGCAG | 0.982
131 | AAGGACU | 0.913
132 | UAUGGCC | -0.253
133 | CACGAGG | 0.731
134 | GGGAACG | 3.86
135 | ACCUCCA | -0.825
136 | UGGACCG | 0.501
137 | GCAUAGU | 0.155
138 | ACGCCGA | -0.795

Row | Sequence | RNAcompete 7-mer binding Z-score
139 | AACUGUC | -0.704
140 | UUCACGG | -0.318
141 | GCCUAAC | -0.672
142 | GAAUGCA | 0.213
143 | GAAGUGA | 1.64
144 | CCCAUCG | -0.774
145 | GAAUCGC | -0.388
146 | UCUGCGU | -0.602
147 | GGAACCA | 1.12
148 | CACUAGU | -0.395
149 | UCACGCU | -0.734
150 | GGACCAC | 0.472
151 | AGGGUAU | 3.41
152 | UCGUCUC | -0.57
153 | GCCCCGU | -0.541
154 | CCAAACC | -0.672
155 | AGAUCUA | -0.646
156 | GUACUUG | -0.307
157 | CCACGAG | -0.296
158 | GGGCCCU | -0.439
159 | CGGAAGG | 2.53
160 | CUCUAGG | -0.282
161 | CGCCGGA | -0.384

Row | Sequence | RNAcompete 7-mer binding Z-score
162 | UCGAGUU | -0.482
163 | CCGGAGU | 0.159
164 | GGACUAU | -0.0306
165 | ACUCCCC | -0.759
166 | GCUUCCG | -0.799
167 | CAUCAAG | -0.471
168 | ACACCUA | -0.814
169 | GGUCCUU | -0.315
170 | UGCCAAC | -0.551
171 | GCGUGAG | 1.01
172 | CUACGCC | -0.876
173 | GGAUAAU | 1.21
174 | AAGACUC | -0.581
175 | GCAGAGU | 0.654
176 | UGGUUCC | -0.289
177 | CCCACGA | -0.701
178 | GACUCAU | -0.85
179 | GGGCUCG | 0.811
180 | UUUGAUG | -0.358
181 | UUGACGA | -0.227
182 | UCUUUAC | -0.865
183 | GGUACCC | 0.104
